The values below come from US20250041455A1.

The assay has as its target mf TFRC ecto-mmh (REGN2054) (monkey (cyno)) (UniProt H9EXL1). Put plainly: SPR Biacore; anti-hFc-captured mAb; 100 nM mfTfR-mmh; 25C. (In general: SPR reads the build-up and loss of mass on a sensor chip optically.)

B1: REGN17510 (H1H12839B) (antibody, human IgG1, kappa, V domains shown)
VH: QVQLVESGGGVVQPGRSLRLSCAASGFPFSNYVMYWVRQAPGKGLEWVALIFFDGKKNYHADSVKGRFTITRDNSKNMLYLQMNSLRPEDAAVYYCAKIHCPNGVCYKGYYGMDVWGQGTTVTVSS
VL: [here about 100 residues without letters]
The molecule B1 showed a 100 nM Ag Bound (RU) of 11 RU.
